By IC50 is meant the dose at which the fit gives 50% viability; a fit beyond the top or the lowest dose is shown as a bound at that dose. The AUC spans the tested range (256-fold, ending at the top dose) of the same fit; the more sensitive the line, the further below 1. For part of these data: Any top dose called inferred is not printed in the source and was worked back from the curve model. For part of these data: Where an entry number is given, a second screen of the drug exists; the two often differ.
Experiments:
Experiment in all cases: Viability of human cancer cell lines after 72 h of drug (GDSC screen)
Tamoxifen = compound: CC/C(=C(\c1ccccc1)c1ccc(OCCN(C)C)cc1)c1ccccc1 [Tamoxifen]; conditions: top dose 5 µM
Procedure: (§1)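 Human cancer cell lines in 384-well plates, medium with 10% serum, drug for 72 h over a 256-fold dose range (nine 2-fold or five 4-fold steps up to the top dose). Adherent lines were fixed and stained with the nucleic acid dye Syto60, suspension lines read with resazurin; signal relative to control wells, capped at 0 and 100%. One two-parameter sigmoid per drug and line, fitted in a mixed model over all curves with the slope shared within a line.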

VNLG/124 = compound: CCCC(=O)OCc1ccc(OC(=O)/C=C(C)/C=C/C=C(C)/C=C/C2=C(C)CCCC2(C)C)cc1 [VNLG/124]; conditions: top dose 5.12 µM; top dose inferred
Procedure: as §1

Elesclomol = compound: CN(NC(=O)CC(=O)NN(C)C(=S)c1ccccc1)C(=S)c1ccccc1 [Elesclomol]; conditions: top dose 0.2 µM; top dose inferred
Procedure: as §1

Bleomycin = compound: Cc1c(N)nc([C@H](CC(N)=O)NC[C@H](N)C(N)=O)nc1C(=O)N[C@H](C(=O)N[C@H](C)[C@@H](O)[C@H](C)C(=O)N[C@H](C(=O)NCCc1nc(-c2nc(C(=O)NCCC[S+](C)C)cs2)cs1)[C@@H](C)O)[C@@H](OC1OC(CO)C(O)C(O)C1OC1OC(CO)C(O)C(OC(N)=O)C1O)c1cnc[nH]1 [Bleomycin]
Procedure: as §1

Masitinib = compound: Cc1ccc(NC(=O)c2ccc(CN3CCN(C)CC3)cc2)cc1Nc1nc(-c2cccnc2)cs1 [Masitinib]; conditions: top dose 20 µM
Procedure: as §1

LAQ824 = compound: O=C(/C=C/c1ccc(CN(CCO)CCc2c[nH]c3ccccc23)cc1)NO [LAQ824]; conditions: top dose 1.024 µM; top dose inferred
Procedure: as §1

OSI-930 = compound: O=C(Nc1ccc(OC(F)(F)F)cc1)c1sccc1NCc1ccnc2ccccc12 [OSI-930]; conditions: top dose 10.24 µM
Procedure: as §1

BX-912 = compound: O=C(Nc1cccc(Nc2ncc(Br)c(NCCc3cnc[nH]3)n2)c1)N1CCCC1 [BX-912]; conditions: top dose 10.24 µM; top dose inferred
Procedure: as §1

NSC-87877 = compound: O=S(=O)(O)c1ccc2cc(N=Nc3cc(S(=O)(=O)O)c4cccnc4c3O)ccc2c1 [NSC-87877]; conditions: top dose 16 µM; top dose inferred
Procedure: as §1

[1] = top dose 50 µM, screen: GDSC drug entry 1378, top dose inferred
[2] = top dose 64 µM, screen: GDSC drug entry 190

Cell Line | AUC (Tamoxifen) | IC50 (Tamoxifen) [µM] | AUC (VNLG/124) | IC50 (VNLG/124) [µM] | AUC (Elesclomol) | IC50 (Elesclomol) [µM] | AUC (Bleomycin; [1]) | IC50 (Bleomycin; [1]) [µM] | AUC (Bleomycin; [2]) | IC50 (Bleomycin; [2]) [µM] | AUC (Masitinib) | IC50 (Masitinib) [µM] | AUC (LAQ824) | IC50 (LAQ824) [µM] | AUC (OSI-930) | IC50 (OSI-930) [µM] | AUC (BX-912) | IC50 (BX-912) [µM] | AUC (NSC-87877) | IC50 (NSC-87877) [µM]
OPM-2 (myeloma, suspension) | 0.993 | > 5 | 0.993 | > 5.12 | 0.955 | > 0.2 | 0.983 | > 50 | 0.919 | > 64 | 0.877 | 13.9 | 0.359 | 0.0282 | 0.968 | > 10.2 | 0.581 | 1.02 | 0.991 | > 16
P30-OHK (lymphoblastic leukaemia, suspension) | 0.99 | > 5 | 0.991 | > 5.12 | 0.977 | > 0.2 | 0.332 | 1.17 | 0.597 | 7.03 | 0.831 | 9.85 | 0.257 | 0.0149 | 0.918 | > 10.2 | 0.55 | 0.855 | 0.991 | > 16
AM-38 (glioma, semi-adherent) | 0.98 | > 5 | 0.988 | > 5.12 | 0.823 | 0.121 | 0.889 | > 50 | 0.557 | 5.73 | 0.889 | > 20 | 0.552 | 0.0889 | 0.983 | > 10.2 | 0.861 | 8.93 | 0.984 | > 16
SISO (cervix, adherent) | 0.985 | > 5 | 0.927 | > 5.12 | 0.468 | 0.0103 | 0.255 | 0.643 | 0.206 | 0.57 | 0.97 | > 20 | 0.518 | 0.0714 | 0.985 | > 10.2 | 0.95 | > 10.2 | 0.988 | > 16
D-283MED (medulloblastoma, adherent) | 0.988 | > 5 | 0.988 | > 5.12 | 0.688 | 0.0399 | 0.586 | 5.25 | 0.511 | 4.28 | 0.984 | > 20 | 0.493 | 0.0615 | 0.975 | > 10.2 | 0.989 | > 10.2 | 0.991 | > 16
JVM-3 (lymphoid neoplasm, suspension) | 0.963 | > 5 | 0.985 | > 5.12 | 0.665 | 0.0364 | 0.432 | 2.03 | 0.964 | > 64 | 0.931 | > 20 | 0.493 | 0.0613 | 0.952 | > 10.2 | 0.944 | > 10.2 | 0.974 | > 16
HC-1 (hairy cell leukaemia, suspension) | 0.979 | > 5 | 0.888 | > 5.12 | 0.626 | 0.0274 | 0.349 | 1.22 | 0.313 | 1.23 | 0.841 | 13.1 | 0.375 | 0.0295 | 0.913 | > 10.2 | 0.931 | > 10.2 | 0.98 | > 16
KP-3 (pancreas, adherent) | 0.979 | > 5 | 0.97 | > 5.12 | 0.656 | 0.037 | 0.827 | 38.6 | 0.699 | 16.3 | 0.915 | > 20 | 0.5 | 0.0639 | 0.966 | > 10.2 | 0.965 | > 10.2 | 0.984 | > 16
TE-15 (oesophagus, suspension) | 0.968 | > 5 | 0.918 | > 5.12 | 0.927 | > 0.2 | 0.83 | 37.2 | 0.49 | 3.74 | 0.897 | > 20 | 0.433 | 0.0409 | 0.938 | > 10.2 | 0.879 | > 10.2 | 0.985 | > 16
HN (head and neck, adherent) | 0.984 | > 5 | 0.985 | > 5.12 | 0.54 | 0.016 | 0.15 | 0.283 | – | – | 0.987 | > 20 | 0.772 | 0.373 | 0.988 | > 10.2 | 0.975 | > 10.2 | 0.989 | > 16
JiyoyeP-2003 (Burkitt lymphoma, suspension) | 0.984 | > 5 | 0.952 | > 5.12 | 0.657 | 0.032 | 0.796 | 20.2 | 0.484 | 3.65 | 0.909 | > 20 | 0.428 | 0.0416 | 0.979 | > 10.2 | 0.981 | > 10.2 | 0.984 | > 16
KS-1 (glioma, adherent) | 0.941 | > 5 | 0.918 | > 5.12 | 0.533 | 0.0157 | 0.454 | 2.26 | 0.105 | < 0.25 | 0.864 | > 20 | 0.425 | 0.0379 | 0.975 | > 10.2 | 0.79 | 5.83 | 0.976 | > 16
DEL (lymphoid neoplasm, suspension) | 0.977 | > 5 | 0.994 | > 5.12 | 0.955 | > 0.2 | 0.813 | 20.1 | 0.194 | 0.65 | 0.539 | 1.56 | 0.345 | 0.0263 | 0.888 | 7.33 | 0.844 | 5.17 | 0.988 | > 16

From the supplement of paper PMC4967469
